Reference: PubChem BioAssay AID493208 (National Center for Advancing Translational Sciences (NCATS), 2011)
In all, about 44,000 compounds went through this assay and about 340 (0.77%) were called active. Roughly 5% stayed inconclusive and do not appear here. Calls come from the whole dose curve; as a rule, active = well fitted inhibition curve with a large enough effect; inconclusive = small, poorly fitted or top-dose-only effect; inactive = flat fitted curve, though single readings scatter. Some of the results follow.

Assay: Acumen qHTS Assay for Inhibitors of the mTORC1 Signaling Pathway in MEF (Tsc2-/-, p53-/-) Cells: Sytravon;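 note: plate controls were DMSO for no effect and rapamycin for full effect; nearly all actives have a fitted effect of over 50% in size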
Conditions: phospho-rpS6 immunofluorescence/PI, 24 h; series mostly up to 38.3 µM; activity change, negative = inhibition: at the top concentration
Procedure, shortened: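 Read-out: phospho-S6 Alexa-488 intensity over PI intensity per well, scored as % active cells using thresholds from rapamycin (7.5 nM) and DMSO controls. Tsc2-/-, p53-/- MEFs exposed to compound for 24 h; PI cell count recorded as viability.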

Activity change, negative = inhibition, inactive:
COc1ccccc1NC(=O)CSc1nnc(-c2cccc(Cl)c2)o1 0.573%, CCOc1ccccc1-c1nc(-c2ccc(-c3ccccc3)nc2OCC)no1 0.706%, COc1cc(OC)c(NC(c2nnc(-c3ccccc3)o2)c2ccc(F)cc2Cl)cc1Cl (configuration not stated) 3.85%, COc1ccc2nc(N(Cc3cccnc3)C(=O)CCc3ccccc3)sc2c1 -0.453%, Cc1ccc(Nc2c3c(nc4nncn24)CCC3)cc1 1.7%, Cc1cc(C)cc(-n2cnc3cc(C(=O)NCCc4ccccc4)ccc32)c1 5.5%, Cc1ccc(C)c(N(C)C(=O)c2cn(C)c(=O)c3ccccc23)c1 5.18%, CCOC(=O)c1c(Oc2ccc(C(=O)OC)cc2)nnc(-c2ccccc2)c1-c1ccccc1 6.63%, Cc1ccc(CCNC(=O)CCc2cn(Cc3ccccc3C)c3ccccc23)cc1 -18.9%, COc1cc(NC(=O)Cn2c(SCc3ccc(F)cc3)nc3cccnc32)cc(OC)c1 -19.7%, CCN(C(=O)Cn1c(C(=O)OC)cc2oc3ccccc3c21)c1cccc(C)c1 -0.498%, O=C(c1cccc(Cl)c1)n1nc(-c2ccco2)nc1NCc1cccs1 5.48%, O=C(CNC(=O)c1ccccc1Cl)OCc1cc(=O)n2ccsc2n1 -5.76%, Brc1csc(CN2CCc3nc(Nc4ccccc4)ncc3C2)c1 0%, Cc1cccc(NC(=O)c2cc(S(=O)(=O)N3CCCCC3)c[nH]2)c1C 0%, Cc1cccc(Cn2c(SCc3ccc(C(=O)N4CCCCCC4)cc3)nc3ccncc32)c1 -1.16%, COc1cc(CN(C(=O)c2cc3ccccc3oc2=O)C2CCS(=O)(=O)C2)cc(OC)c1OC (configuration not stated) 4.98%, Cc1ccc(Cn2c(=O)n(CCCCC(=O)NCCc3ccc(Cl)cc3)c(=O)c3ccccc32)cc1 -10.6%, Cn1c(=O)c2c(n3c4ccccc4nc13)NC(=O)CC2c1ccccc1F (configuration not stated) -10%, CC1CCc2c(sc3nnn(Cc4ccc(F)cc4)c(=O)c23)C1 (configuration not stated) -1.02%, O=C(NCc1ccccc1)c1cc(-c2cccc(Cl)c2)on1 -24.7%, CCc1nnc2c(Nc3ccc(Br)c(C)c3)nc3ccccc3n12 -13.8%, COc1ccc(S(=O)(=O)N2CCN(c3ccc(F)cc3)CC2)cc1-c1noc(C)n1 3.57%, CCc1ccccc1NC(=O)Cn1nnc(C(=O)OC)c1C(=O)OC 0.734%, CCN(CC)S(=O)(=O)c1ccc2c(c1)N(CC(=O)Nc1c(C)cccc1C)C(=O)CO2 -8.7%, COc1ccc(OC)c(N(CC(=O)NCc2ccccc2)S(=O)(=O)c2ccccc2)c1 2.61%, COc1ccc(NC(=O)CSc2ncc(-c3ccc(Cl)cc3)[nH]2)cc1OC 6.24%, CCc1ccc(NCc2cc3cc4c(cc3n(CC(=O)Nc3ccc(Cl)cc3)c2=O)OCO4)cc1 -11.5%, COc1ccccc1CCNC(=O)c1ccc2c(c1)c(C)c(C)n2C -7.01%, COC(=O)c1ccc(NC(=O)CC2C(=O)N(c3ccc(Cl)cc3)C(=O)N2Cc2cccs2)cc1 (configuration not stated) -5.63%, COC(=O)c1cc(NC(=O)CCc2c(C)nc3c4c(C)cc(C)nc4nn3c2C)cc(C(=O)OC)c1 -5.01%, Cc1cc(S(=O)(=O)Nc2cccc(C(=O)O)c2)c(C)c(S(=O)(=O)c2ccccc2)c1 -17.2%, CCOC(=O)c1sc2ccccc2c1S(=O)(=O)Nc1ccc(N(C)C)cc1 -3.2%, CCOC(=O)c1sc(N2C(=O)c3oc4cc(C)c(C)cc4c(=O)c3C2c2cccc(O)c2)nc1C (configuration not stated) -11.4%, COc1ccccc1NC(=O)CCCOc1cc(=O)n(C)c2ccccc12 -4.8%, CCc1ccccc1NC(=O)c1cc(S(=O)(=O)N(CC)c2ccccc2)ccc1F 12.4%, CC1CCN(c2nc3c(S(=O)(=O)c4ccccc4)nnn3c3ccsc23)CC1 -14%, COc1ccc(-c2nc(C)c(CCNC(=O)C(=O)Nc3cccc(F)c3)s2)cc1OC 3.68%, COc1ccc(CCNC(=O)c2nn(-c3ccc(C)cc3)c(=O)c3c2c2ccccc2n3C)cc1OC -3.04%, O=C(CC1N=C2c3ccccc3N=C(SCC(=O)Nc3cccc(C(F)(F)F)c3)N2C1=O)NCc1cccs1 (configuration not stated) -1.55%, CCOC(=O)CCn1nc(-c2ccc(C)cc2)c2ccccc2c1=O 15.6%, Cc1ccc(C)c(Cn2c(=O)n(Cc3ccccc3)c(=O)c3c(C)c(C)sc32)c1 -14.9%, CCc1ccccc1NC(=O)Nc1nnc(N2CCCC2)s1 -0.736%, CCc1ccc(CN(Cc2ccco2)C(=O)c2ccccc2Cl)cc1 -15.4%, Cc1ccc(C(=O)COC(=O)c2cc(-c3ccccc3)nc3ccccc23)cc1C 0.529%, COc1cc(NC(=O)Cn2c(=O)n(Cc3ccccc3OC)c(=O)c3cccnc32)cc(OC)c1 1.4%, Cc1ccc(C)c(N2CCN(S(=O)(=O)c3ccc4oc(=O)c5ncn(C)c5c4c3)CC2)c1 0.96%, Cc1ccc(S(=O)(=O)c2nnn3c2nc(NCc2ccc(F)cc2)c2sccc23)cc1 -7.68%, CCCNC(=O)c1ccc2c(c1)N(Cc1cccc(C)c1)C(=O)c1ccccc1S2 -7.71%, COc1ccc(NC(=O)CCN2CCN(c3cccc(Cl)c3)CC2)cc1 -2.48%, CCN1c2ccccc2-n2cccc2C12CCN(C(=O)Nc1ccccc1C(F)(F)F)CC2 11%, CCOc1ccc(CNC(=O)Cn2c(=O)c3cccn3c3ccc(F)cc32)cc1 0%, CCOc1ccc(OCC)c(NC(=O)C2CCCN(S(=O)(=O)c3ccc4c(c3)oc(=O)n4C)C2)c1 (configuration not stated) -2.6%, Cc1cccc(-c2nc(SCCCOc3ccccc3Cl)n3[nH]c(=O)cc3n2)c1 4.92%, O=C(Nc1ccc(F)c(Cl)c1)N1CCN(C(=O)c2nsc3ccccc23)CC1 3.25%, Cc1cc(C)cc(-n2c(SCC(=O)N3CCc4ccccc43)nc3c([nH]c4ccccc43)c2=O)c1 -0.326%, CC(=O)Nc1ccc(Nc2ncnc3c2c(-c2ccccc2)cn3-c2ccccc2)cc1 -24.1%, CCn1c(C(=O)N2CCC(C(=O)N3CCN(c4cccc(C)c4C)CC3)CC2)cc2sccc21 -2.57%, O=c1c2cc3c(cc2nc2sc(Nc4ccc(F)cc4F)nn12)OCO3 0%, Cc1ccc(NC(=O)Cn2nnnc2-c2ccccc2N)cc1 -11.7%, O=C(C1CCCN(S(=O)(=O)c2cccs2)C1)N1CCN(c2cccc(Cl)c2)CC1 (configuration not stated) 0.282%, Cc1ccc(C)c(N2CCN(c3ncnc4c3nc3n4CCCCC3)CC2)c1 0.966%, Cn1c(=O)c2nc(SCC(=O)Nc3cc(Cl)ccc3Cl)n(C)c2n(C)c1=O -1.02%, NC(=O)CSc1nc2c(oc3ccccc32)c(=O)n1-c1ccccc1F -7.1%, COc1ccc(Cl)cc1NC(=O)N1CCC(CN2CCc3ccccc3C2)CC1 3.28%, CCOc1ccc(C(=O)NCC(c2ccco2)S(=O)(=O)c2ccc(C)cc2)cc1 (configuration not stated) -14.9%, COc1cccc(CNC(=O)CSc2ccc(-c3sc(-c4ccccc4)nc3C)nn2)c1 -17.1%, CCc1ccc(-n2nc3cc(C)c(NC(=O)c4cc(Cl)ccc4OC)cc3n2)cc1 -0.94%, Cc1ccc(NC(=O)c2ccc(NC(=O)N3CCSc4ncccc43)cc2)cc1Cl -2.79%, O=C(Cn1cc(S(=O)(=O)Cc2ccc(F)cc2)c2ccccc21)NCCc1ccccc1 -1.68%, Cc1ccc2c(=O)cc(C(=O)Nc3sc4c(c3C(=O)NCc3ccco3)CCC4)oc2c1C 1.57%, COc1ccc(NS(=O)(=O)c2cc3[nH]c(=O)c(=O)[nH]c3cc2C)cc1OC -9.18%, COc1ccc(Nc2cc(C(=O)NCCc3ccccc3)c3ccccc3n2)cc1OC 3.65%, COc1ccc(OCCn2c(C3CC(=O)N(c4ccc(F)cc4)C3)nc3ccccc32)cc1 (configuration not stated) -0.415%, Cc1ccc(CNC(=O)Cn2ncc3c(C)n(Cc4ccc(Cl)cc4)c(C)c3c2=O)cc1 1.43%, COc1ccccc1Nc1cc(C)nc2nc(-c3ccccc3)nn12 0%, CCCCOC(=O)c1ccc(NS(=O)(=O)c2c(C)nc3scc(C)n3c2=O)cc1 -12.4%, CCCN(C(=O)Cn1ncc2c(=O)oc3ccccc3c21)c1cccc(C)c1 2.2%, Cc1ccc(NC(=O)c2c(N3CCCC3=O)c3cc(C)ccc3n2C)c(C)c1 1.25%, CCC(C)NC(=O)Cn1c(=O)n(Cc2ccc(C(=O)NCCCOC)cc2)c(=O)c2ccccc21 (configuration not stated) 2.97%, COC(=O)c1c(NC(=O)c2ccc(S(=O)(=O)N3CCCC(C)C3)cc2)sc2c1CCN(C(C)C)C2 (configuration not stated) 0.933%, CC(C)c1ccc(NC(=O)CSc2ncc3c(n2)-c2ccccc2N(C)S3(=O)=O)cc1 11%, Cc1ccc(Cl)c2sc(N3CCN(C(=O)C4CC4)CC3)nc12 -2.82%, CSc1ccc(CNCc2c(C(=O)O)c(C)n(Cc3ccc(F)cc3Cl)c2C)cc1 -2.51%, Cc1ccccc1CNC(=O)c1c(C)oc2c1C1=NCCN1C=N2 -4.75%, Cc1ccccc1Cn1cc(S(=O)(=O)c2ccc(Cl)cc2)c(=O)c2cc3c(cc21)OCO3 6.85%, Cc1c(NC(=O)c2nc3ccccc3n(C)c2=O)cccc1[N+](=O)[O-] 10.2%, COc1cccc(N2CCN(C(=O)C3CCCN(S(=O)(=O)c4ccc(Br)s4)C3)CC2)c1 (configuration not stated) -18.9%, CCc1ccc(-n2c(=O)c3c4c(sc3n(Cc3ccc(F)cc3)c2=O)CCCC4)cc1 1.93%, COc1ccc(CNC(=O)c2cccc(N3CCCS3(=O)=O)c2)cc1 -1.53%, O=C1[C@@H]2CSC(c3ccc(F)cc3)N2C(=O)N1c1ccc(Cl)cc1 (some centres not stated) -3.04%, Nc1ncc(S(=O)(=O)NCc2cccc(Cl)c2)cn1 -9.19%, O=C(Cn1c(=O)n2nc(-c3ccccc3)nc2c2ccccc21)Nc1ccccc1C(F)(F)F 1.33%, Cc1ccc2oc(=O)c3cnn(CC(=O)NCc4ccccc4Cl)c3c2c1 -4.79%, Cc1ccc(C)n1-c1nnc(N2CCC(C(=O)NCc3ccccc3Cl)CC2)s1 1.59%, Cc1ccc(-c2nc(CCNC(=O)C(=O)Nc3ccc(C)c(C)c3)cs2)cc1 -0.112%, CCCCC12CN3CC(C)(CN(C1)C3c1cc(Br)ccc1O)C2=O (configuration not stated) -1.98%
